In the BET-seq Pho4 binding data (Le et al. 2018):
This is one part of the list. These are noisy estimates, calculated here from bound and input reads.

target: T1, Pho4 (S. cerevisiae) (UniProt P07270); test: relative binding free energy (BET-seq); higher = weaker binding; conditions: reference: library average
T1 sequence: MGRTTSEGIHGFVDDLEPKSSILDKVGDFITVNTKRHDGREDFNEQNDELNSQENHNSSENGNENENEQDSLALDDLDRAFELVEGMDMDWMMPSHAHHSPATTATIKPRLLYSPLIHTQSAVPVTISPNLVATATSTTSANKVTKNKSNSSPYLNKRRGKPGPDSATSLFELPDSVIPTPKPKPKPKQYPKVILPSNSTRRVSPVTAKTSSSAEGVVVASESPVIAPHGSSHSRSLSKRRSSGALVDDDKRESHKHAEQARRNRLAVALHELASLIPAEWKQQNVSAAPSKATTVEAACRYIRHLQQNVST

| Sequence | relative binding free energy |
| --- | --- |
| TTGGCCACGTGCTGGT | -0.24 kcal/mol |
| TTCGTCACGTGGATTA | 0.09 kcal/mol |
| TATTTCACGTGAGGGC | 0.42 kcal/mol |
| TACGTCACGTGGTTAG | 0.05 kcal/mol |
| TTGTACACGTGTGTGG | 0.09 kcal/mol |
| TTGGACACGTGCTTTG | -0.01 kcal/mol |
| AGGGGCACGTGGCGCG | -0.23 kcal/mol |
| CGGTTCACGTGAGCTT | 0.46 kcal/mol |
| GTAATCACGTGTTAAT | 0.29 kcal/mol |
| AAAGACACGTGGTGGT | 0.05 kcal/mol |
| AGTGACACGTGTTATT | -0.03 kcal/mol |
| TATTTCACGTGTTCGA | 0.33 kcal/mol |
| TTATGCACGTGTCGGT | 0.06 kcal/mol |
| GATGTCACGTGCGCGT | 0.01 kcal/mol |
| TTGATCACGTGGATAT | 0.18 kcal/mol |
| GTCGGCACGTGTGCTT | -0.06 kcal/mol |
| CGGGCCACGTGGGGTA | -0.36 kcal/mol |
| TGGTTCACGTGCGTGT | 0.15 kcal/mol |
| CAGGGCACGTGGTTTA | -0.2 kcal/mol |
| TTACGCACGTGATATG | 0 kcal/mol |
| TTGTGCACGTGCAGAT | -0.16 kcal/mol |
| GCTTTCACGTGTGGAG | 0.37 kcal/mol |
| TGTTACACGTGGGCGA | -0.09 kcal/mol |

| Sequence | relative binding free energy |
| --- | --- |
| AGGGTCACGTGGTCCG | 0.13 kcal/mol |
| GTAAGCACGTGTGAGA | 0.01 kcal/mol |
| TGATGCACGTGGGTAC | -0.14 kcal/mol |
| TGGGGCACGTGTTAAA | 0 kcal/mol |
| GAGGGCACGTGATCGT | -0.02 kcal/mol |
| TAAAGCACGTGTGCTT | -0.12 kcal/mol |
| GGGAACACGTGGGTCA | 0.09 kcal/mol |
| GAGTTCACGTGCCGTG | 0.26 kcal/mol |
| GATTGCACGTGTGGCG | 0.09 kcal/mol |
| GGCTACACGTGTTTGT | 0.15 kcal/mol |
| TAAGGCACGTGTAAAT | 0.09 kcal/mol |
| AGGTTCACGTGTTCCG | 0.28 kcal/mol |
| GTTAACACGTGTTGAT | 0.16 kcal/mol |
| GGGTTCACGTGCTAGG | 0.23 kcal/mol |
| GATGCCACGTGGCGGT | -0.08 kcal/mol |
| AAAAGCACGTGGGGGC | -0.29 kcal/mol |
| GTGTACACGTGGTAGT | 0.03 kcal/mol |
| CGGTGCACGTGTACGT | 0.15 kcal/mol |
| TTGGTCACGTGGAGGA | 0.11 kcal/mol |
| GTGGGCACGTGTGTCC | -0.05 kcal/mol |
| CCTTGCACGTGTGGGT | 0 kcal/mol |
| GGGTTCACGTGGACTG | 0.24 kcal/mol |
| TCAATCACGTGGGGAA | 0.16 kcal/mol |

| Sequence | relative binding free energy |
| --- | --- |
| TCGTTCACGTGTTGAT | 0.12 kcal/mol |
| CTCGGCACGTGGGCTG | -0.15 kcal/mol |
| CTAGACACGTGAGGTT | 0.22 kcal/mol |
| TTAACCACGTGGGTTT | -0.19 kcal/mol |
| TGGTGCACGTGTAATG | 0.16 kcal/mol |
| TTGTGCACGTGAGCGC | 0.14 kcal/mol |
| AGAATCACGTGTGGAT | 0.25 kcal/mol |
| TGGTTCACGTGGCTTT | 0.24 kcal/mol |
| ATGGGCACGTGTCTTG | -0.02 kcal/mol |
| TAGGTCACGTGTGCTC | 0.11 kcal/mol |
| TCGAGCACGTGAGGGG | 0.06 kcal/mol |
| TAAGTCACGTGGTTTC | 0.08 kcal/mol |
| AAATGCACGTGTGGTC | 0.01 kcal/mol |
| TCTGTCACGTGGAAGG | 0.1 kcal/mol |
| ATTATCACGTGGTCGG | 0.08 kcal/mol |
| AAGCTCACGTGGGTTT | 0.01 kcal/mol |
| GTTTTCACGTGAGTAG | 0.42 kcal/mol |
| GCTAGCACGTGAGTGT | 0.21 kcal/mol |
| GGTGTCACGTGCCGGT | -0.02 kcal/mol |
| GATTTCACGTGATAGG | 0.46 kcal/mol |
| GAGTCCACGTGTGGAG | 0.24 kcal/mol |
| GGTTCCACGTGTGTTC | 0.2 kcal/mol |
| AGGGTCACGTGTAGCT | 0.14 kcal/mol |

| Sequence | relative binding free energy |
| --- | --- |
| TGCGTCACGTGATAGT | 0.21 kcal/mol |
| TTTTCCACGTGGCGGG | 0.14 kcal/mol |
| TTTATCACGTGGTTTC | 0.22 kcal/mol |
| TTTATCACGTGTTCTA | -0.02 kcal/mol |
| CTGTCCACGTGAGGTT | 0.22 kcal/mol |
| GTTATCACGTGGTACT | 0.09 kcal/mol |
| TACGGCACGTGGGTTA | -0.18 kcal/mol |
| GGGCTCACGTGTGTTG | 0.25 kcal/mol |
| TTTCACACGTGAGGGG | 0.15 kcal/mol |
| TTGATCACGTGGGGCC | -0.02 kcal/mol |
| TTGTACACGTGATGAT | 0.15 kcal/mol |
| GTGGACACGTGGTGGA | 0.07 kcal/mol |
| CAGTTCACGTGGGGAA | 0.1 kcal/mol |
| TAGAACACGTGGTGTA | -0.21 kcal/mol |
| GTCTGCACGTGGCGTT | -0.02 kcal/mol |
| CTTTACACGTGACGGG | 0.38 kcal/mol |
| CTAGGCACGTGCTGTT | -0.2 kcal/mol |
| TGTGACACGTGGTGCA | -0.2 kcal/mol |
| AACGTCACGTGGGATT | 0 kcal/mol |
| AGGGTCACGTGAAGCG | 0.23 kcal/mol |
| TATGTCACGTGCTGAT | 0.05 kcal/mol |
| AGTTTCACGTGTATAG | 0.24 kcal/mol |
| GGGGACACGTGAAGAG | 0.28 kcal/mol |

| Sequence | relative binding free energy |
| --- | --- |
| GCGGGCACGTGGAAGG | 0 kcal/mol |
| GCAGGCACGTGTGGCT | -0.06 kcal/mol |
| TGGCTCACGTGTTGCT | 0.16 kcal/mol |
| TTCATCACGTGGATAT | 0.15 kcal/mol |
| GGGCGCACGTGGATAT | 0 kcal/mol |
| TAAGGCACGTGGTGGA | -0.13 kcal/mol |
| CTTTTCACGTGTATGA | 0.29 kcal/mol |
| TATTACACGTGTACTG | 0.05 kcal/mol |
| CGTGTCACGTGGAGGC | 0.15 kcal/mol |
| GAAGACACGTGGTTTG | -0.09 kcal/mol |
| GTGAGCACGTGGGCTT | -0.12 kcal/mol |
| ATTTTCACGTGGGAAT | 0.3 kcal/mol |
| TTTAACACGTGTCGGA | 0.04 kcal/mol |
| CCGGTCACGTGTGGGA | 0.1 kcal/mol |
| ACTGGCACGTGGTGGC | -0.16 kcal/mol |
| AGGTACACGTGAGTGT | 0.23 kcal/mol |
| TTAATCACGTGCTAGT | 0.07 kcal/mol |
| TGTAGCACGTGCTAGT | -0.21 kcal/mol |
| AGCTTCACGTGGTTGT | 0.25 kcal/mol |
| TGTAGCACGTGTTGTT | -0.01 kcal/mol |
| CTGGTCACGTGGGGGC | -0.09 kcal/mol |
| AAGGCCACGTGAGGTT | 0.12 kcal/mol |
| TATTTCACGTGGTAAT | 0.19 kcal/mol |
